Laboratory results taken from the supplement of paper PMC4604168 (melanoma cell lines).
The other results are listed elsewhere or left out. Many values rest on one well or one pass, so single values are uncertain.

Columns and labels:
Assay in all cases: cell count relative to DMSO control; melanoma cells; higher = more viable cells
Conditions in all cases: library dose: standard library concentration; 72 h
G361 = tested on: G361
IPC-298 = tested on: IPC-298
IST-MEL1 = tested on: IST-MEL1
LB2518-MEL = tested on: LB2518-MEL
LOXIMVI = tested on: LOXIMVI
MEL-HO = tested on: MEL-HO
MZ2-MEL = tested on: MZ2-MEL
MeWo = tested on: MeWo
RPMI7951 = tested on: RPMI7951
RVH-421 = tested on: RVH-421
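Also: cells treated in 1,536-well plates, then fixed and DAPI-stained, with nuclei counted from automated high-throughput microscope images.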

Row | SMILES | cell count (G361) [%] | cell count (IPC-298) [%] | cell count (IST-MEL1) [%] | cell count (LB2518-MEL) [%] | cell count (LOXIMVI) [%] | cell count (MEL-HO) [%] | cell count (MZ2-MEL) [%] | cell count (MeWo) [%] | cell count (RPMI7951) [%] | cell count (RVH-421) [%]
1 | N.N.[Cl][Pt][Cl] [cisplatin] + O=c1cc(-c2cccc3c2Sc2ccccc2S3)oc(N2CCOCC2)c1 [KU55933] (first compound 8 µM, partner dose 5 µM) | 62 | 76.4 | 87.5 | 64.7 | 272 | 78.1 | 91 | 91.3 | 58.8 | 81.5
2 | C[C@]12O[C@H](C[C@]1(O)CO)n1c3ccccc3c3c4c(c5c6ccccc6n2c5c31)CNC4=O [Lestaurtinib] + Cn1cncc1[C@@](N)(c1ccc(Cl)cc1)c1ccc2c(c1)c(-c1cccc(Cl)c1)cc(=O)n2C [tipifarnib] (first compound 0.02 µM, partner dose 0.05 µM) | 70.8 | 75.2 | 74.2 | 47.5 | 49.2 | 74 | 88.9 | 65.2 | 58.4 | 64
3 | C[C@]12O[C@H](C[C@]1(O)CO)n1c3ccccc3c3c4c(c5c6ccccc6n2c5c31)CNC4=O [Lestaurtinib] + C=C(c1ccc(C(=O)O)cc1)c1cc2c(cc1C)C(C)(C)CCC2(C)C [Bexarotene] (first compound 0.02 µM, partner dose 10 µM) | 79.1 | 82.7 | 86.5 | 79.9 | 127 | 71.6 | 85.7 | 89.4 | 64.6 | 84.1
4 | Cn1cc(C2=C(c3cn(C4CCN(Cc5ccccn5)CC4)c4ccccc34)C(=O)NC2=O)c2ccccc21 [Enzastaurin] + Cc1cc(Nc2cc(N3CCN(C)CC3)nc(/C=C/c3ccccc3)n2)n[nH]1 [ENMD2076] (first compound 4 µM, partner dose 0.2 µM) | 75.8 | 67.4 | 66.9 | 47.4 | 61.1 | 78.9 | 88.3 | 79.3 | 36.3 | 49.4
5 | N.N.[Cl][Pt][Cl] [cisplatin] + CN(NC(=O)CC(=O)NN(C)C(=S)c1ccccc1)C(=S)c1ccccc1 [STA4783] (first compound 8 µM, partner dose 0.03 µM) | 77.3 | 114 | 107 | 101 | 84.4 | 90.1 | 126 | 109 | 106 | 84.1
6 | N.N.[Cl][Pt][Cl] [cisplatin] + COCC[n+]1c2c(n(Cc3cnccn3)c1C)C(=O)c1ccccc1C2=O [YM155] (first compound 8 µM, partner dose 0.002 µM) | 82.9 | 48.7 | 49.3 | 33.5 | 52.7 | 94.9 | 21.5 | 37.3 | 36.6 | 83.8
7 | N.N.[Cl][Pt][Cl] [cisplatin] + CO[C@H]1C[C@@H]2CC[C@@H](C)[C@@](O)(O2)C(=O)C(=O)N2CCCC[C@H]2C(=O)O[C@H]([C@H](C)C[C@@H]2CC[C@@H](OCCO)[C@H](OC)C2)CC(=O)[C@H](C)/C=C(\C)[C@@H](O)[C@@H](OC)C(=O)[C@H](C)C[C@H](C)/C=C/C=C/C=C/1C [everolimus] (first compound 8 µM, partner dose 0.1 µM) | 54 | 67.7 | 73.4 | 61.1 | 63.1 | 70.7 | 68.7 | 69.2 | 65.4 | 72.8
8 | C[As](C)SC[C@H](NC(=O)CC[C@H](N)C(=O)O)C(=O)NCC(=O)O [Darinaparsin] + Cc1nc(Nc2ncc(C(=O)Nc3c(C)cccc3Cl)s2)cc(N2CCN(CCO)CC2)n1 [dasatanib] (first compound 2 µM, partner dose 0.02 µM) | 65.8 | 86.6 | 63.8 | 65.4 | 16.4 | 74.9 | 51.6 | 71.1 | 32.5 | 42.3
9 | Cn1cc(C2=C(c3cn(C4CCN(Cc5ccccn5)CC4)c4ccccc34)C(=O)NC2=O)c2ccccc21 [Enzastaurin] + CO[C@@H]1[C@H](N(C)C(=O)c2ccccc2)C[C@H]2O[C@]1(C)n1c3ccccc3c3c4c(c5c6ccccc6n2c5c31)C(=O)NC4 [Midostaurin] (first compound 4 µM, partner dose 0.4 µM) | 30 | 79.5 | 47.2 | 51 | 58.9 | 69.2 | 60.5 | 65.6 | 30.5 | 43.5
10 | C[As](C)SC[C@H](NC(=O)CC[C@H](N)C(=O)O)C(=O)NCC(=O)O [Darinaparsin] + NC(=O)Nc1cc(-c2cccc(F)c2)sc1C(=O)N[C@H]1CCCNC1 [AZD7762] (first compound 2 µM, partner dose 0.1 µM) | 75.3 | 83.5 | 91.6 | 62.5 | 69.2 | 79.9 | 97.8 | 61.3 | 27.8 | 101
11 | Cn1cc(C2=C(c3cn(C4CCN(Cc5ccccn5)CC4)c4ccccc34)C(=O)NC2=O)c2ccccc21 [Enzastaurin] + CNC(=O)c1cc(Oc2ccc(NC(=O)Nc3ccc(Cl)c(C(F)(F)F)c3)cc2)ccn1 [sorafenib] (first compound 4 µM, partner dose 2 µM) | 67.8 | 83.6 | 75.8 | 60.6 | 120 | 84.1 | 107 | 72.5 | 48.7 | 64.2
12 | Cn1cc(C2=C(c3cn(C4CCN(Cc5ccccn5)CC4)c4ccccc34)C(=O)NC2=O)c2ccccc21 [Enzastaurin] + C#Cc1cccc(Nc2ncnc3cc(OCCOC)c(OCCOC)cc23)c1 [erlotinib] (first compound 4 µM, partner dose 4 µM) | 72.1 | 82.4 | 72.4 | 35.3 | 83.8 | 85.6 | 98.4 | 73 | 48 | 57.1
13 | N.N.[Cl][Pt][Cl] [cisplatin] + COc1ccc(COc2ccc(Cc3cnc(N)nc3N)cc2OC)cc1 [GW2580] (first compound 8 µM, partner dose 5 µM) | 94.4 | 101 | 103 | 95.8 | 112 | 104 | 99.5 | 110 | 124 | 62.1
14 | Cn1cc(C2=C(c3cn(C4CCN(Cc5ccccn5)CC4)c4ccccc34)C(=O)NC2=O)c2ccccc21 [Enzastaurin] + CCc1ccc(CCOc2ccc(CC3SC(=O)NC3=O)cc2)nc1 [pioglitazone] (first compound 4 µM, partner dose 10 µM) | 89.1 | 94.1 | 69.7 | 86.3 | 90.6 | 81.4 | 100 | 95.5 | 83.2 | 79.4
15 | C[C@]12O[C@H](C[C@]1(O)CO)n1c3ccccc3c3c4c(c5c6ccccc6n2c5c31)CNC4=O [Lestaurtinib] + C[C@@H]1CCN(C(=O)CC#N)C[C@@H]1N(C)c1ncnc2[nH]ccc12 [CP690550] (first compound 0.02 µM, partner dose 5 µM) | 107 | 81.5 | 117 | 73.2 | 84.3 | 95.7 | 124 | 81.1 | 126 | 117
16 | N.N.[Cl][Pt][Cl] [cisplatin] + Nc1nc(F)nc2c1ncn2[C@@H]1O[C@H](CO)[C@@H](O)[C@@H]1O [fludarabine] (first compound 8 µM, partner dose 1 µM) | 63.1 | 69.3 | 67.2 | 70.5 | 66.3 | 61 | 97.5 | 87.6 | 63.7 | 75.6
17 | Cn1cc(C2=C(c3cn(C4CCN(Cc5ccccn5)CC4)c4ccccc34)C(=O)NC2=O)c2ccccc21 [Enzastaurin] + CN1CCN(c2ccc3nc(-c4c(N)c5c(F)cccc5[nH]c4=O)[nH]c3c2)CC1 [Dovitinib] (first compound 4 µM, partner dose 0.5 µM) | 53.2 | 77.1 | 64.8 | 53.1 | 134 | 63.1 | 58.2 | 41.8 | 19.5 | 57.6
18 | N.N.[Cl][Pt][Cl] [cisplatin] + Nc1cccc2c1CN(C1CCC(=O)NC1=O)C2=O [lenalidomide] (first compound 8 µM, partner dose 5 µM) | 81.6 | 103 | 97.4 | 81.3 | 102 | 107 | 112 | 111 | 73.8 | 55.5
19 | C[As](C)SC[C@H](NC(=O)CC[C@H](N)C(=O)O)C(=O)NCC(=O)O [Darinaparsin] + Cc1ccc(NC(=O)c2cccc(N(C)C)c2)cc1NC(=O)c1ccc(O)cc1 [ZM336372] (first compound 2 µM, partner dose 10 µM) | 81.9 | 88 | 84.7 | 73.6 | 80.7 | 83.5 | 102 | 90.4 | 84.1 | 87.9
20 | Cn1cc(C2=C(c3cn(C4CCN(Cc5ccccn5)CC4)c4ccccc34)C(=O)NC2=O)c2ccccc21 [Enzastaurin] + Cc1cc(SCc2sc(-c3ccc(C(F)(F)F)c(F)c3)nc2C)ccc1OCC(=O)O [GW0742] (first compound 4 µM, partner dose 10 µM) | 69.9 | 83.7 | 81.6 | 58 | 97.4 | 81.1 | 89.6 | 84.8 | 53.5 | 46.4
21 | N.N.[Cl][Pt][Cl] [cisplatin] + OCCn1cc(-c2cnc3nnn(Cc4ccc5ncccc5c4)c3n2)cn1 [PF04217903] (first compound 8 µM, partner dose 5 µM) | 88.9 | 112 | 76.5 | 89 | 76.6 | 91 | 115 | 91.3 | 114 | 106
22 | N.N.[Cl][Pt][Cl] [cisplatin] + COC(=O)c1sccc1S(=O)(=O)Nc1ccc(Nc2ccccc2)cc1OC [GSK0660] (first compound 8 µM, partner dose 5 µM) | 95 | 90.5 | 89.8 | 101 | 125 | 83.2 | 84.2 | 130 | 124 | 93
